# Measurements published in the supplement of paper PMC9446081.
# Screen size: about 39,000 compounds; about 220 (0.56%) showed activity. Some of the results follow.
# Test system: Escherichia coli K-12 BW25113
# Assay: relative growth (OD600 normalised to plate interquartile mean) (fraction); higher = less growth inhibition, active = 0.2 or less
# Settings: 50 µM; LB; incubation time: overnight (16-24 h)
# 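Note: static incubation at 37 °C against the wild-type strain, values averaged over two biological replicates.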
row,SMILES,relative growth
1,C[C@@H]1CCCCO[C@H](CN(C)C(=O)Nc2ccccc2)[C@H](C)CN([C@H](C)CO)C(=O)c2cc(NS(=O)(=O)c3cccs3)ccc2O1,inactive: 1.03
2,C=CC[C@H](CC(=O)N[C@@H](CO)Cc1ccccc1)C(=O)N[C@H](COC(=O)[C@@H](CC=C)Cc1ccc(F)cc1)Cc1c[nH]c2ccccc12,inactive: 1.04
3,C[C@@H]1CN([C@H](C)CO)C(=O)c2cc(NS(=O)(=O)c3ccc(F)cc3)ccc2O[C@@H](C)CCCCO[C@@H]1CN(C)Cc1ccccc1,inactive: 0.913
4,Fc1ccccc1-c1nc2ccn(Cc3ccc(-c4ccc(C(F)(F)F)cc4C(F)(F)F)nn3)cc-2n1,inactive: 1.01
5,COc1ccc(S(=O)(=O)Nc2cccc3c2O[C@@H](CN(C)C(=O)Nc2c(C)noc2C)[C@H](C)CN([C@@H](C)CO)C3=O)cc1,inactive: 1
6,CCCCC(=O)OC1(C(=O)CO)CCC2C3CCC4=CC(=O)CCC4(C)C3C(O)CC21C (stereo not given),inactive: 1.07
7,COc1ccc(C#Cc2ccc3c(c2)O[C@@H](CN(C)C(=O)CN2CCOCC2)[C@H](C)CN([C@H](C)CO)S3(=O)=O)cc1,inactive: 1.02
8,Cc1noc(C)c1NC(=O)N(C)C[C@@H]1OCCCC[C@@H](C)Oc2ccc(NC(=O)NC3CCCCC3)cc2C(=O)N([C@H](C)CO)C[C@H]1C,inactive: 0.988
9,COc1ccc(NC(=O)N(C)C[C@H]2OCCCC[C@H](C)Oc3ccc(NS(=O)(=O)c4ccc(OC)cc4)cc3C(=O)N([C@@H](C)CO)C[C@@H]2C)cc1,inactive: 1.02
10,O=C(Cc1ccncc1)Nc1ccc2c(c1)[C@@H]1C[C@H](CC(=O)N3CCc4ccccc4C3)O[C@H](CO)[C@@H]1O2,inactive: 0.999
11,CO[C@H](CN(C)C(=O)c1ccc2c(c1)OCO2)[C@@H](C)CN([C@H](C)CO)S(=O)(=O)c1ccc(F)cc1,inactive: 0.985
12,C[C@@H]1CN([C@H](C)CO)C(=O)c2cc(NC(=O)Nc3ccccc3)ccc2O[C@@H](C)CCCCO[C@@H]1CN(C)C(=O)NC1CCCCC1,inactive: 1.01
13,CC(=O)N1CCc2c(sc(N)c2C(N)=O)C1,inactive: 0.997
14,C[C@@H]1CN([C@@H](C)CO)C(=O)c2cccc(NC(=O)C3CC3)c2O[C@H]1CN(C)Cc1ccc2c(c1)OCO2,inactive: 0.968
15,COc1cc(C=CC(=O)O)cc(OC)c1O,inactive: 1.02
16,C#CCN([C@H](/C=C/C1CC1)[C@@H](O)Cc1ccccc1)[C@@H](Cc1ccc(-n2cc(CCC(=O)NO)nn2)cc1)C(=O)OC,inactive: 1
17,C[C@@H]1CN([C@H](C)CO)C(=O)c2cc(C#CC3(O)CCCC3)cnc2O[C@H]1CN(C)S(=O)(=O)c1cccc(F)c1,inactive: 1.01
18,C[C@H](CO)N1C[C@H](C)[C@@H](CN(C)C(=O)Nc2ccccc2)Oc2ccc(NC(=O)Nc3ccc(C(F)(F)F)cc3)cc2CC1=O,inactive: 1.03
19,O=C(O)[C@@H]1C(=CCO)O[C@H]2CC(=O)N12,inactive: 0.95
20,COCC(=O)N1C[C@H](C)[C@H](OC)CN(C)C(=O)c2cc(NC(=O)Nc3ccccc3)ccc2OC[C@H]1C,inactive: 0.988

row,SMILES,relative growth
1,COc1ccc([Si](C)(C)[C@@H]2[C@@H](CC(=O)N3Cc4ccccc4C[C@H]3CO)O[C@]3(C(=O)N(Cc4ccc(N5C(=O)c6cccc7cccc5c67)cc4)c4ccccc43)[C@H]2C)cc1,inactive: 1.06
2,O=C(C[C@H]1CC[C@H]2[C@@H](COC[C@H](O)CN2S(=O)(=O)c2ccc(Cl)cc2)O1)N[C@@H]1CCN(Cc2ccccc2)C1,inactive: 0.993
3,C[C@H]1CN([C@@H](C)CO)C(=O)c2cc(NC(=O)Nc3ccc(C(F)(F)F)cc3)ccc2O[C@@H]1CN(C)Cc1ccc(C(=O)Nc2ccccc2N)cc1,inactive: 1.03
4,C[C@@H]1CN([C@H](C)CO)C(=O)c2cc(NC(=O)NC3CCCCC3)ccc2O[C@@H]1CN(C)Cc1ccc(-c2ccccc2)cc1,inactive: 1.01
5,C[C@@H]1CN([C@@H](C)CO)C(=O)c2cc(NC(=O)Nc3cccc4ccccc34)ccc2O[C@@H]1CN(C)Cc1ccc(-c2ccccc2)cc1,inactive: 1
6,O=C(C[C@H]1CC[C@H]2[C@@H](COC[C@@H](O)CN2Cc2ccccc2F)O1)N[C@@H]1CCN(Cc2ccccc2)C1,inactive: 0.977
7,Cc1noc(C)c1NC(=O)N(C)C[C@H]1Oc2ccc(NC(=O)CCCN(C)C)cc2CC(=O)N([C@@H](C)CO)C[C@@H]1C,inactive: 1.02
8,Cc1cn([C@H]2C[C@H](F)[C@@H](CO)O2)c(=O)[nH]c1=O,inactive: 0.276
9,C[C@@H]1CN([C@H](C)CO)C(=O)c2cccc(NC(=O)c3cnccn3)c2O[C@@H]1CN(C)CC1CCCCC1,inactive: 0.989
10,C[C@H](CO)N1C[C@H](C)[C@H](CN(C)Cc2ccc(C(F)(F)F)cc2)Oc2ccc(NC(=O)Cc3cn(C)c4ccccc34)cc2C1=O,inactive: 1.03
11,COc1cc(C(C)=O)ccc1O,inactive: 1.09
12,Cc1ccc(S(=O)(=O)N(C)C[C@@H]2OCCCC[C@@H](C)Oc3ccc(NC(=O)Nc4ccccc4)cc3C(=O)N([C@@H](C)CO)C[C@H]2C)cc1,inactive: 1.04
13,COc1ccc(NC(=O)N(C)C[C@H]2OCCCC[C@@H](C)Oc3ccc(NC(=O)c4ccncc4)cc3C(=O)N([C@@H](C)CO)C[C@H]2C)cc1,inactive: 1
14,COc1ccc2c3c(n(c2c1)C)[C@@H](CO)N(C[C@]13CCN(CC1)Cc1ccncc1)C(=O)CN1CCOCC1,inactive: 0.981
15,CC[C@H]1CN(C(=O)c2cnccn2)N1C,inactive: 0.98
16,C[C@@H]1CN([C@@H](C)CO)C(=O)c2cc(NS(=O)(=O)c3ccc(F)cc3)ccc2O[C@@H]1CN(C)S(=O)(=O)c1ccc(F)cc1,inactive: 1.02
17,Cc1noc(C)c1NC(=O)N(C)C[C@H]1Oc2ccc(NC(=O)c3ccncc3)cc2CC(=O)N([C@H](C)CO)C[C@H]1C,inactive: 0.976
18,C[C@@H]1CN([C@H](C)CO)C(=O)c2cc(NC(=O)Nc3ccc(F)cc3)ccc2O[C@H]1CN(C)S(C)(=O)=O,inactive: 0.997
19,Cc1noc(C)c1NC(=O)N(C)C[C@@H]1Oc2ccc(NC(=O)Cn3cnnn3)cc2C(=O)N([C@H](C)CO)C[C@@H]1C,inactive: 0.996
20,CCNc1nc(OCCO)nc(N(C)C)n1,inactive: 1.01

row,SMILES,relative growth
1,COc1ccc(CN(C)C[C@H]2Oc3c(NC(=O)c4ccc(-c5nccs5)cc4)cccc3C(=O)N([C@@H](C)CO)C[C@H]2C)cc1,inactive: 0.982
2,O=C1O[C@H](c2ccccc2)[C@H](c2ccccc2)N2[C@H]1[C@@H](C(=O)N1CCN(c3ncccn3)CC1)[C@]1(C(=O)Nc3ccc(C#CC4=CCCCC4)cc31)[C@H]2c1ccc(O)cc1,inactive: 1.04
3,C[C@@H]1CN([C@@H](C)CO)S(=O)(=O)c2ccc(-c3ccc(F)cc3)cc2O[C@@H]1CN(C)C(=O)C1CCOCC1,inactive: 0.98
4,Nc1ccn[nH]1,inactive: 1.02
5,C[C@@H]1CN([C@@H](C)CO)C(=O)c2cccc(NS(C)(=O)=O)c2O[C@@H]1CN(C)C(=O)Nc1ccc(C(F)(F)F)cc1,inactive: 0.997
6,CO/N=C1\C[C@]2(C[C@@H]3C[C@@H](C/C=C(\C)C[C@@H](C)/C=C/C=C4\CO[C@@H]5[C@H](O)C(C)=C[C@@H](C(=O)O3)[C@]45O)O2)O[C@H](/C(C)=C/C(C)C)[C@H]1C,inactive: 0.994
7,C[C@@H]1CN([C@H](C)CO)C(=O)c2cc(NC(=O)Cc3cn(C)c4ccccc34)ccc2O[C@H]1CN(C)Cc1ccc(Oc2ccccc2)cc1,inactive: 0.974
8,C[C@@H]1CCCCO[C@@H](CN(C)Cc2ccccc2)[C@@H](C)CN([C@@H](C)CO)C(=O)c2cc(NC(=O)Nc3ccc(C(F)(F)F)cc3)ccc2O1,inactive: 1.03
9,C[C@H]1CCCCO[C@H](CN(C)Cc2ccc(C(=O)Nc3ccccc3N)cc2)[C@@H](C)CN([C@@H](C)CO)C(=O)c2cc(N(C)C)ccc2O1,inactive: 0.982
10,CCOC(=O)CN1CCN(C=O)CC1,inactive: 1.01
11,CCCCCCCCCCCCCCCCOP(=O)([O-])OCC[N+](C)(C)C,inactive: 1
12,C[C@H]1CN([C@@H](C)CO)C(=O)c2cc(NC(=O)CCCCCC(=O)Nc3ccccc3N)ccc2O[C@H]1CN(C)C(=O)Nc1ccc(C(F)(F)F)cc1,inactive: 1
13,Cc1noc(C)c1S(=O)(=O)Nc1ccc2c(c1)CC(=O)N([C@@H](C)CO)C[C@H](C)[C@H](CN(C)Cc1ccc3c(c1)OCO3)O2,inactive: 1
14,COC(=O)c1c2oc(c1C(=O)OC)C(=O)N[C@@H](Cc1ccccc1)Cn1cc(nn1)CNC(=O)[C@H](Cc1ccccc1)NC(=O)N[C@@H](CO)CC2,inactive: 0.991
15,CCS(=O)(=O)Nc1ccc2c(c1)C(=O)N(C)C[C@H](OC)[C@@H](C)CN(Cc1nccs1)[C@H](C)CO2,inactive: 0.98
16,O=C(C[C@H]1CC[C@H]2[C@@H](COC[C@@H](O)CN2C(=O)c2ccc3c(c2)OCO3)O1)NCCN1CCCC1,inactive: 0.997
17,COc1ccc(CN(C)C[C@H]2Oc3c(NC(=O)c4cc(C)nn4C)cccc3C(=O)N([C@@H](C)CO)C[C@@H]2C)cc1,inactive: 0.994
18,COC(=O)c1ccc2c(c1)NC(=O)C2,inactive: 0.99
19,CN(C)CC(=O)N1[C@@H]2c3ccc(-c4ccncc4)c(=O)n3C[C@H]1[C@H](CO)[C@H]2C(=O)NC1CCC1,inactive: 1.01
20,C[C@@H]1O[C@@H](O[C@@H]2[C@@H](O)[C@H](O)[C@@H](CO)O[C@H]2c2c(O)cc3oc(-c4ccc(O)cc4)cc(=O)c3c2O)[C@H](O)[C@H](O)[C@H]1O,inactive: 0.993
